# Measurements taken from PMC4336329 (PLoS ONE, 2015).
# Among all 310,000 compounds or so, about 2,200 (0.71%) showed an effect of 50% or more. Effects have a minus sign here. The list shows a part of the results.
# Target: human ether-à-go-go-related gene (hERG) potassium channel (human, UniProt Q12809)
# Experiment: primary screen, population patch clamp on CHO cells stably expressing hERG
# Sequence of human ether-à-go-go-related gene (hERG) potassium channel (Q12809 whole entry, looked up): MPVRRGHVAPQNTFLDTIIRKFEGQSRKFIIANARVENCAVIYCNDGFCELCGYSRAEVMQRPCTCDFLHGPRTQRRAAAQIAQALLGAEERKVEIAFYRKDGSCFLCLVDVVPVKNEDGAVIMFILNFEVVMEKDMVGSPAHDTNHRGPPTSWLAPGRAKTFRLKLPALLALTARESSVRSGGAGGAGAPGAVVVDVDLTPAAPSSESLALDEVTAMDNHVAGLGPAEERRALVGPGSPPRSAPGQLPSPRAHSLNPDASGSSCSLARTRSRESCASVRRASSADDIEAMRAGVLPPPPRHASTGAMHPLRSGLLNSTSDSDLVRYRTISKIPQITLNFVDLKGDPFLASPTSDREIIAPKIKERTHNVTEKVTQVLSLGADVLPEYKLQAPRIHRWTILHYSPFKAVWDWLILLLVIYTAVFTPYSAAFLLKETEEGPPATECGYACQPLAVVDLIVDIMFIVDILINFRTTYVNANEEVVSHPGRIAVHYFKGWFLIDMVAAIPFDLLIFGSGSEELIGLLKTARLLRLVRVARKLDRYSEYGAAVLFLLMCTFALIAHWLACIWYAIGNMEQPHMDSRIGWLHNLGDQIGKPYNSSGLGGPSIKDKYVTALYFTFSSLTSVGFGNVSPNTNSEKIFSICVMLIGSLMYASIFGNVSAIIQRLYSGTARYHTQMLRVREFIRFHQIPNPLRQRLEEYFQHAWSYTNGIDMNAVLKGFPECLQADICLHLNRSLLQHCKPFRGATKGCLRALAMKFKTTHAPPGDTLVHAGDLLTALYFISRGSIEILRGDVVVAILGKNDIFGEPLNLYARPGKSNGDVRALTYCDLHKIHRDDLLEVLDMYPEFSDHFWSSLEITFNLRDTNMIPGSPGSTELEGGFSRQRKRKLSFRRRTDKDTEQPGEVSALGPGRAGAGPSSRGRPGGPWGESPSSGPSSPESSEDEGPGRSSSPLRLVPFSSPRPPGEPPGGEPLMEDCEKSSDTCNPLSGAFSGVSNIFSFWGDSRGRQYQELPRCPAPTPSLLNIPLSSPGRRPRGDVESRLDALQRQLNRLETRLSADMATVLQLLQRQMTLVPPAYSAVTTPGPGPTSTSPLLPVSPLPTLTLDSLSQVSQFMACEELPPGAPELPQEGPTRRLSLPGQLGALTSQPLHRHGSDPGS
row,Structure (SMILES),"hERG current change (%, negative = inhibition) at 1uM"
1,Cl.Nc1c(Br)cc(Br)cc1CNC1CCC(O)CC1 (stereo not drawn),-0.0639%
2,Cc1ccccc1CN1CCN(c2nc3ccccc3s2)CC1,15.2%
3,Cc1cc(-n2c(C)cc(C(=O)COc3ccccc3[N+](=O)[O-])c2C)no1,-2.3%
4,CCCCn1c(CNC(=O)CC)nc2ccccc21,8.18%
5,CCN(CC)S(=O)(=O)c1ccc(O)c(NC(=O)c2cc(-c3cc(OC)c(OC)c(OC)c3)nc3ccccc23)c1,-41.6%
6,O=C(CSc1ccc([N+](=O)[O-])cn1)Nc1ccc(N2CCOCC2)c(Cl)c1,1.93%
7,CCn1c(NCc2ccco2)nc2c1c(=O)n(C)c(=O)n2C,-9.03%
8,C=CCn1c(N(C)C)nc2c1c(=O)[nH]c(=O)n2C,6.06%
9,Cc1ccc(CNC(=O)c2ccc(N3CCC4(CC3)CC(c3cccc(Br)c3)=NO4)c(NC(=O)c3c(Cl)cccc3Cl)c2)cc1,13.6%
10,O=C(c1ccccc1)N1CCN(S(=O)(=O)N2CCCCC2)CC1,5.62%
11,C/C=C(\C)CN1CCN(c2ccc(C)cc2)CC1,7.31%
12,CCOc1ccc(S(=O)(=O)N2CCC(C(=O)N3CCOCC3)CC2)cc1Cl,6.38%
13,CC1CN(CCOc2ccccc2C(C)C)CC(C)O1.O=C(O)C(=O)O (stereo not drawn),16.5%
14,CC(C)NS(=O)(=O)c1ccc(OCC(=O)Nc2ccccc2F)cc1,13.6%
15,Cc1cc(NC(=O)/C=C/C(=O)N(c2ccccc2C)C(C(=O)NC2CCCC2)c2ccc(F)cc2)no1 (stereo not drawn),12.7%
16,CCC(C)c1ccc(S(=O)(=O)N2CCN(CC(O)CN3CCOCC3)CC2)cc1 (stereo not drawn),-10%
17,Cc1nnc(Nc2ccc(O)cc2)[nH]c1=O,19.5%
18,Cc1sc2ncnc(N3CCC(C(=O)Nc4ccc(C#N)cc4)CC3)c2c1C,16.5%
19,CC1=NN(c2ccc(Br)cc2)C(=O)/C1=C/c1cccs1,16.8%
20,O=C(NCc1ccccn1)c1nc(Cn2cc([N+](=O)[O-])cn2)no1,9.44%
21,CCOC(=O)C1=C(C)N(C)C(C)=C(C(=O)OCC)C1c1ccsc1,20.9%

row,Structure (SMILES),"hERG current change (%, negative = inhibition) at 1uM"
1,CC(C)c1ccc(CCNC(=O)CCNC(=O)c2ccc(Br)cc2)cc1,8.08%
2,CC(C)(C)c1ccc(OCC(O)CN2CCN(C(=O)c3ccccc3)CC2)cc1.O=C(O)C(=O)O (stereo not drawn),-9.74%
3,CC(C)Nc1ccc(C(CC(N)=O)NC(=O)c2ccc(Br)cc2)cc1[N+](=O)[O-] (stereo not drawn),9.08%
4,O=C(COc1ccc2ccccc2c1)NNC(=O)Cc1ccccc1,15%
5,CCc1cc(=O)oc2cc(OCC(=O)NCc3ccccn3)ccc12,7.89%
6,Cc1ccc(OCCCN2C(=O)C(=O)c3cc(C)ccc32)cc1,6.9%
7,Cc1sc(NC(=O)CN(Cc2ccccc2)C(=O)C(C)C)c(C(N)=O)c1C,2.32%
8,COc1ccc2[nH]c3c(c2c1)CC(C)NC3=O (stereo not drawn),14.9%
9,CCOc1ccc(C(=O)N(CC)CC(=O)Nc2ccc3c(c2)OCCO3)cc1OCC,4.59%
10,Cc1ccc(CNC(=O)c2ccc3c(=O)n4c(-c5ccc(C)cc5)csc4nc3c2)cc1,10.4%
11,COc1cccc(/C=N/NC(=O)c2cc(-c3cccn3C)n[nH]2)c1,4.76%
12,CC(=O)COc1nc2c(c(-c3ccco3)c1C#N)CCc1ccccc1-2,11.6%
13,CSCc1ccc(C(=O)N2CCCC(Nc3ccc(F)cc3)C2)o1 (stereo not drawn),3.79%
14,COc1ccccc1C(=O)N1C(CC(=O)Nc2ccc(C)c(C)c2)C(=O)NC2CCCCC21 (stereo not drawn),10.1%
15,O=C(CSc1ncn[nH]1)N1c2ccccc2Sc2ccccc21,9.21%
16,CCOc1cc(C(C(=O)NCC2CCCO2)N(C(=O)Cn2nnc3ccccc32)c2cccc(OC)c2)ccc1O (stereo not drawn),9.93%
17,COC(=O)C1=C(C(=O)OC)[C@@H]2N(Cc3ccccc3)c3ccccc3[C@@]23C[C@@H](C(=O)OC)N(C(=O)c2cccs2)C3=N1,9.3%
18,CN(CCC(=O)Nc1cc(S(=O)(=O)N(C)C)ccc1Cl)CC(=O)Nc1ccc(F)cc1,-18.6%
19,Cc1cc(C(=O)N/N=C/c2cc(N=Nc3ccccc3)ccc2O)n[nH]1,16.9%
20,Cc1ccc(C(=O)NC2CCN(CC(=O)Nc3c(C)cc(C)cc3C)CC2)cc1,10.4%
21,C[C@@H](C(=O)NCC1CC1)[C@@H]1C[C@@]1(C)[C@@H](NC(=O)OCc1ccccc1)c1ccccc1,13%

row,Structure (SMILES),"hERG current change (%, negative = inhibition) at 1uM"
1,Cc1cc(C)c(S(=O)(=O)c2ccccc2)c(OC(=O)c2c(Cl)cc(Cl)cc2Cl)n1,4.44%
2,O=Cc1cccc(Oc2ccc([N+](=O)[O-])cc2[N+](=O)[O-])c1,5.01%
3,O=S(=O)(Nc1ccc(O)c(NS(=O)(=O)c2ccccc2)c1)c1ccccc1,12.6%
4,COCC(C)NC(=O)CSc1nc2ccccc2c(=O)n1CCc1ccc(S(N)(=O)=O)cc1 (stereo not drawn),9.59%
5,C=CCNc1nc(-c2sc(NC(C)=O)nc2C)cs1,10.7%
6,Cc1cc(C)c(S(=O)(=O)N(CC(=O)O)CC(=O)O)c(C)c1,6.69%
7,Cc1c(C(=O)N/N=C/C(C)C)[nH]c2c([N+](=O)[O-])cccc12,7.17%
8,Cc1c(Cl)cccc1NC(=S)N1CC2CC(C1)c1cccc(=O)n1C2 (stereo not drawn),2.25%
9,O=C(NCc1ccc(F)cc1)Nc1cccc(Cl)c1,9.25%
10,O=C(CN1CCc2ccccc2C1)NC1CCCC1,10.8%
11,Cc1cc(NC(=O)CSc2nc3ccsc3c(=O)n2Cc2ccccn2)n[nH]1,-0.106%
12,CCOC(=O)c1c(C)c(-c2ccccc2)n(CC(=O)NCCCN(CC)CC)c1C,7.29%
13,COC(C(=O)Nc1ccc(S(=O)(=O)Nc2cccc3ccccc23)cc1)c1ccccc1 (stereo not drawn),5.54%
14,CCC(C)Sc1ccc([C@H]2N[C@@](CC(C)C)(C(=O)OC)[C@H]3C(=O)N(C)C(=O)[C@@H]23)cc1.O=C(O)C(F)(F)F (stereo partly drawn),7.91%
15,CCCC(C)n1[nH]c(=O)cc1N (stereo not drawn),5.09%
16,O=C(c1ccc(N2CCCCC2)c([N+](=O)[O-])c1)N(c1ccccn1)c1ccccn1,4.89%
17,CCOC(=O)C1CCCN(CC(=O)Nc2c(C(=O)OC)[nH]c3ccccc23)C1 (stereo not drawn),14.5%
18,Clc1ccccc1N1CCN(Cc2ccc3c(c2)OCO3)CC1.O=C(O)C(=O)O,13.2%
19,COc1cccc(NC(=S)N2CCN(S(C)(=O)=O)CC2)c1,13%
20,CC(C)(C)C1=C[C@@H](CO)C[C@@H](CO)C1,9.08%
21,CCc1c(C)nc2ncnn2c1Nc1ccc(C#N)c(Cl)c1,-22.7%

row,Structure (SMILES),"hERG current change (%, negative = inhibition) at 1uM"
1,COc1ccc(CC(=O)OCN2C(=O)c3ccccc3C2=O)cc1,4.3%
2,NC(=O)C1(N2CCCCC2)CCN(C(=O)CSc2nc3ccccc3[nH]2)CC1,11.3%
3,CCOC(=O)c1oc2nc(CC(C)C)c3c(c2c1N)CCC3,9.98%
4,Cc1noc(C)c1COc1ccc(C(=O)N2CCCC(C(F)(F)F)C2)cc1 (stereo not drawn),-8.81%
5,CC(Oc1ccc(Cl)cc1)C(=O)Nc1ccc(S(=O)(=O)N2CCOCC2)cc1 (stereo not drawn),5.73%
6,CC(=O)/C(C#N)=C1\NC(=O)C(Cc2cc(Cl)ccc2Cl)S1 (stereo not drawn),11.4%
7,COc1ccc(Nc2nc(-c3cccc(OC)c3O)nc3ccccc23)cc1,17.2%
8,O=C(c1cc(=O)[nH]c2ccccc12)N1CCN(c2cccc(C(F)(F)F)c2)CC1,-2.59%
9,CCOc1ccc(C(=O)n2cc(C(=O)OC)c3ccccc32)cc1,10.8%
10,CC1CCCN(c2ccc(C(=O)NCc3ccc4c(c3)OCO4)cc2[N+](=O)[O-])C1 (stereo not drawn),12.8%
11,CN(C)c1ccc(/C=N/NC(=O)CN2CCN(c3ccc(F)cc3)CC2)cc1,11.1%
12,COc1ccc(-n2nc(C(=O)NCC(=O)NCCCN3CCCCCC3)c3ccccc3c2=O)cc1Cl,0.584%
13,Cc1cccc(/C=N/n2c(-c3ccco3)n[nH]c2=S)c1,0.426%
14,O=C(Nc1sc2c(c1C(=O)O)CCCC2)C(=O)N1CCOCC1,27.9%
15,O=S(=O)(c1ccc2ccccc2c1)N1CCN(C(=S)Nc2ccc(F)cc2)CC1,1.98%
16,COc1ccc(C)c(Cn2c(-c3nonc3N)nc3ccccc32)c1,3.31%
17,Cc1c(NC(=O)C(C)OC(=O)c2ccc(Cl)nc2)c(=O)n(-c2ccccc2)n1C (stereo not drawn),-2.42%
18,O=C(NC(=S)Nc1ccc(N2CCCCC2)cc1)c1cccs1,-0.035%
19,Cc1cc(C(=O)OCC(=O)Nc2cc(C)on2)c2ccccc2n1,0.152%
20,Cc1ccc(NC(=O)c2cccc(N3C(=O)CCC3=O)c2)nc1,9.48%
21,O=C(C[n+]1ccc(C(=O)NCCCO)cc1)c1cccc(Br)c1.[Br-],13.1%
